These results are taken from the RNAGym collection of RNA variant scans (doi:10.7554/elife.90254).

B1: LINE1-full (parent)
chain: UACGUAGGUGGUUUUCCCCUGAUAGUGCUAAGGGGGCCUGGAAGUUUGGACUGGGCAGAGCUCAACACAGCGUGGCAAAGUGGCUGUGGCUAGACUGCCUCUCUGGAUUCCUCGUCACUCAGCAGGGCAUCUCUGAGAGAAAUGCC

The source gives no read counts; variants with many changes may rest on few reads.

The data set covers variants of B1. Description: self-cleavage, relative activity (ratio to wild type); higher = more cleavage; in vitro, sequencing; the parent is a self-cleaving ribozyme.
Regarding A31U C37A U39C U45C G125A, the self-cleavage is 0.

In the case of A31U A57G A67G G72A, the self-cleavage was determined as 0.59.

Take A31U G35U G44A A59C A69U A92G U108C: the self-cleavage worked out at 0.

A30U U102C U134A C146U: the self-cleavage was 0.85.

Take A31G A42G U81G: the self-cleavage is 1.04.

For A31G U119A U134C, the self-cleavage was determined as 2.33.

For the variant A31G A69U U102C, the self-cleavage came to 0.06.

For the variant A30U U52A U62C U102C U115C, the self-cleavage stood at 0.44.

For the variant A30G A64U A136G, the self-cleavage turned out to be 0.75.

Turning to A30U G60A A79G U109C, the self-cleavage stood at 0.1.

With A30G U87C A138G, the self-cleavage came to 0.3.

On to A30G G58A A67G U73C, for which the self-cleavage was 0.14.

A30G A59U A79G U132A: the self-cleavage was found to be 0.

With A30G A78C U134C A140G, the self-cleavage is 0.84.

A30G U109C A117C U119A: the self-cleavage came to 2.55.

In the case of A31G A92G U130A, the self-cleavage came to 0.

For the variant A31G A77C G86A, the self-cleavage was 0.12.

With A31G A129U U130C, the self-cleavage came out at 0.46.

As to A31U G49A A64G, the self-cleavage was 0.12.

For A30U U47A G48A A94G A117G, the self-cleavage was found to be 0.33.

For the variant A31G U100C C146U, the self-cleavage was 1.43.

For the variant A30G U62C U109A U134C, the self-cleavage turned out to be 0.07.

For A30G U45C U119C A142G, the self-cleavage was found to be 0.81.

A30G A59G U96A A107G: the self-cleavage was found to be 0.33.

A31U A69G A94U A129G: the self-cleavage came to 0.

On to A30G U46A U134A, for which the self-cleavage came to 0.63.

For the variant A31U A65G A142G, the self-cleavage was 0.

A31U G36A G86A U91A G122A U143C: the self-cleavage is 0.01.

In the case of A30G A67G A141G, the self-cleavage was found to be 0.44.

Regarding A30G A64U G83A, the self-cleavage worked out at 0.38.

For A30G A65U A117U, the self-cleavage came to 0.23.

In the case of A31G A92G U132C A136G, the self-cleavage is 0.48.

For A30G U45C U119C A140G, the self-cleavage was found to be 0.

Take A30U U39A A136G: the self-cleavage stood at 1.63.

With A31C A77U U81C, the self-cleavage turned out to be 1.19.

With A31U G60A C71G A79G U108C C120A, the self-cleavage is 0.03.

With A30G U52A U112C U132A G137U, the self-cleavage is 1.31.

Turning to A30G A92U U102C, the self-cleavage turned out to be 0.47.

Consider A30U U115C G125A, for which the self-cleavage came to 1.56.

Regarding A30G G72A A107G U130C, the self-cleavage came out at 1.96.

With A30G C84G U96C U109A A140G, the self-cleavage amounted to 0.15.

Take A30G A69G U143C: the self-cleavage was determined as 0.42.

Turning to A30U A124U A140G, the self-cleavage was 0.37.

Take A31G U102C A121C: the self-cleavage stood at 1.38.

A30U A64U A107U A136G: the self-cleavage turned out to be 0.42.

For A31G A42U U52C A69G U130C, the self-cleavage came to 0.

A30U G40A U96C G114C: the self-cleavage amounted to 0.04.

For A30G U47A U52C, the self-cleavage turned out to be 0.29.

With A30U C98U U115C, the self-cleavage amounted to 0.39.

Consider A30G G32A A129G, for which the self-cleavage stood at 2.35.

Take A30U U104C U108C: the self-cleavage was 0.98.

Regarding A31U A69U G127U, the self-cleavage was 0.08.

As for A31U A65U U81A, the self-cleavage was 0.22.

For the variant A31G U52C U85A U132C, the self-cleavage turned out to be 0.28.

As to A31G U45C C63U G114U, the self-cleavage amounted to 0.27.

For A31U A136U A138G, the self-cleavage is 0.68.

A30G U104A U115A: the self-cleavage was found to be 0.4.

With A31U A78G C95U, the self-cleavage stood at 1.15.

A31C C37U U47A: the self-cleavage was 0.85.

Take A31G G36U U47C A117C G126A: the self-cleavage stood at 1.26.

A30G U52A A138G: the self-cleavage worked out at 0.

As for A30U G86A G97A A136G, the self-cleavage is 0.04.

In the case of A31C U39C C113A U132C A140G, the self-cleavage is 1.39.

With A30U A42G G53U A79U A141G, the self-cleavage came out at 1.01.

As for A31G A42G G80A, the self-cleavage came out at 1.76.

As for A31G A77G A138U, the self-cleavage came to 2.53.

For the variant A31G U46C U143G, the self-cleavage was 1.25.

With A30U A94U U102C, the self-cleavage came out at 0.65.

With A31G G48A A50U, the self-cleavage came to 1.17.

Take A30U U73A A77G: the self-cleavage was found to be 1.42.

In the case of A31G U96G U115A A138G, the self-cleavage amounted to 0.16.

Turning to A30U U46A G88A A140U, the self-cleavage turned out to be 0.03.

On to A30G U112C A138G, for which the self-cleavage was determined as 1.23.

For A31G A43G U62A A117G, the self-cleavage was 0.

As for A30G G35A G106U, the self-cleavage came to 1.42.

For A30G U39C U100A A138G, the self-cleavage was 1.02.

On to A30G U73C U134C, for which the self-cleavage turned out to be 2.76.

Turning to A31C A78G A121U U134C, the self-cleavage amounted to 0.52.

In the case of A30G U45A U96C U100C U130C A142G, the self-cleavage turned out to be 0.

Consider A31G A42G A69G U130A A142G, for which the self-cleavage was 0.

With A31C U39C G72A, the self-cleavage was found to be 1.43.

Regarding A31G U73A A124G, the self-cleavage was 1.16.

As to A31U C84U U112C A117G, the self-cleavage turned out to be 0.07.

As to A31G A69U U96A, the self-cleavage came out at 0.02.

A31U G54A U109C A121U A142G: the self-cleavage came to 0.2.

For A31U A78G U108C, the self-cleavage was found to be 2.63.

Regarding A31G A43U A69U A141U, the self-cleavage turned out to be 0.04.

For A31C A65G U85A A140G, the self-cleavage is 0.

As for A31U A65G U104C, the self-cleavage came out at 0.

On to A30G G35A U115A A138U, for which the self-cleavage worked out at 0.94.

Turning to A31G G32C U81A U104C, the self-cleavage is 1.78.

Consider A30G G44A C84U A121G, for which the self-cleavage was 0.5.

For A31G A94G U115A, the self-cleavage was 0.

For the variant A31U C68U U108C U112C, the self-cleavage is 0.

For A31G A42G A65G A77G, the self-cleavage turned out to be 0.

As for A31G G48A A64U U102C, the self-cleavage was found to be 0.35.

Consider A30U U45C A94G, for which the self-cleavage stood at 0.4.

With A31U A57G A64U A142G, the self-cleavage turned out to be 0.46.

Regarding A30G C56G U100C, the self-cleavage amounted to 0.47.

Regarding A30G U52C U108A, the self-cleavage is 1.41.

As to A31G A42G U96A, the self-cleavage came out at 0.18.

Take A30U A78U U100A: the self-cleavage is 1.31.

On to A31G G54A U81C A94U A141G, for which the self-cleavage turned out to be 0.

As for A31G A43G U112C, the self-cleavage came out at 1.19.

As for A30U A43G U112A A138U, the self-cleavage amounted to 1.4.

In the case of A31U A57G G80A A124G, the self-cleavage is 0.36.

For the variant A31U A50G C63U A77G U143A, the self-cleavage came to 0.66.

Regarding A30G A59G U130C, the self-cleavage was 0.66.

A30U A50G U96A A136G: the self-cleavage came to 0.

As for A30G U81G U115C, the self-cleavage came to 1.84.

In the case of A31G G48A U62C, the self-cleavage was determined as 0.07.

A30G U109C G114A G135U A138G: the self-cleavage came out at 1.06.

Consider A31G G36A A43G A124U, for which the self-cleavage was 1.35.

Turning to A30G U62A G93A, the self-cleavage amounted to 0.08.

In the case of A30G U96A U104C U112C A141G, the self-cleavage is 0.

In the case of A30U G34A A59U A64U U115C A136G, the self-cleavage was found to be 0.47.

Consider A30U U45C A59U A67G, for which the self-cleavage was 0.

A30U A50G C63U A78G A94G: the self-cleavage turned out to be 0.

Regarding A30G A59U U85C, the self-cleavage turned out to be 0.14.

For the variant A31G A69U U73A A107U A136U, the self-cleavage came out at 0.07.

Regarding A30G A92U A136G, the self-cleavage is 0.71.

For the variant A31U G44U A59G A77U U100C, the self-cleavage was found to be 0.2.

Take A31U G34A U39C A78G A121G: the self-cleavage was determined as 0.53.

As to A31G U39C C51U A64G A77U A79G, the self-cleavage came to 0.39.

Take A30G C63A A77G A121G: the self-cleavage is 0.13.

A30G G49U U132C U134C: the self-cleavage was 1.09.

Consider A30G U52A A64U U73A U109C, for which the self-cleavage amounted to 0.74.

Consider A30U U132A A142C, for which the self-cleavage amounted to 0.54.

On to A31G A57U U81A U85C A124U, for which the self-cleavage was 0.09.

Consider A30G C37A A57G G126A A138G, for which the self-cleavage stood at 1.07.

Turning to A31G G33U U73C A77U U85C, the self-cleavage was 0.07.

Take A31G U47A A64U: the self-cleavage amounted to 0.47.

In the case of A30G G58A U100A, the self-cleavage amounted to 0.04.

Consider A30G U102C A107U, for which the self-cleavage worked out at 1.29.

As for A31U G40A A136G U143C, the self-cleavage came to 1.29.

For A31G G53C U96C, the self-cleavage was 0.19.

On to A31G U45A U96C, for which the self-cleavage came to 0.14.

As to A31U G83A A92U A129U A138U, the self-cleavage is 0.53.

Take A31U A79U A117U A124G: the self-cleavage came out at 1.88.

Regarding A31G G35A U87A A129U, the self-cleavage was 0.08.

Consider A31G A64U A77G U130C, for which the self-cleavage was determined as 0.24.

On to A30G A129G U130C, for which the self-cleavage was determined as 0.

Regarding A30U G36C A57U A64G U73C U143C, the self-cleavage worked out at 0.

For the variant A31G A42U A121G, the self-cleavage came out at 1.37.

As to A30G C68U U102A A117G, the self-cleavage was 1.11.

On to A31U G54U A57G, for which the self-cleavage was 0.35.

With A30U G48A U96C, the self-cleavage was 0.16.

As for A31G G114A A117G U134C, the self-cleavage worked out at 1.28.

On to A31G C71U U87G U96A U112C G126A U132A, for which the self-cleavage worked out at 0.02.

Regarding A30U U47C A138G, the self-cleavage is 1.3.

For A31G C38U G55A A65G, the self-cleavage was determined as 0.06.

As for A30U U46A U87C U108C U130C A136U, the self-cleavage is 0.

Turning to A30G U81C G88A G93A, the self-cleavage is 0.09.

Regarding A31G C61A A138G, the self-cleavage was found to be 0.05.

A30G G32C A77G U87A A140G A142G: the self-cleavage amounted to 0.

Take A31C C120A A138G: the self-cleavage stood at 1.07.

With A30G G97A U132C, the self-cleavage is 0.51.

Regarding A30G C63A U85C A92G U109C A124U, the self-cleavage came out at 0.

As to A31G U52C G72A, the self-cleavage was 0.79.

For the variant A30U A129G A141G, the self-cleavage was determined as 0.92.

In the case of A30G U52C G127C, the self-cleavage stood at 1.75.

For the variant A30G U62A G106A, the self-cleavage was determined as 0.07.

For A31U A43U A57C G58A C63A, the self-cleavage worked out at 0.09.

Turning to A31G G35A A69G A124U, the self-cleavage came to 0.16.

As to A30G G72A A140G, the self-cleavage came to 0.87.

As for A30U G44A A124U, the self-cleavage is 0.53.

For A30G U46C U132C, the self-cleavage came out at 0.46.
